Data as given in PubChem BioAssay AID2100 (National Center for Advancing Translational Sciences (NCATS), 2009).
About 1,200 (0.4%) of roughly 300,000 compounds were called active. This list was built around the results that the source calls inconclusive (neither active nor inactive); the mix of calls is not that of the screen. Calls follow the shape of the dose curve; as a rule, active = well fitted inhibition curve with a large enough effect; inconclusive = small, poorly fitted or top-dose-only effect, or another doubt; inactive = no such curve, though single readings can be large or run the other way. Potencies of inconclusive entries are doubtful fits and often do not repeat.
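For activity change, negative = inhibition in this document: 0% = full enzyme reaction and -100% = no-enzyme basal signal.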
Potency is read from the fitted curve at half-maximal effect.

Each compound was assayed against Lysosomal alpha-glucosidase (Homo sapiens) (UniProt P10253) (assay: qHTS Assay for Inhibitors and Activators of Human alpha-Glucosidase Cleavage of Glycogen). Settings: recombinant GAA, glycogen substrate, Amplex Red glucose oxidase fluorescence; activity change, negative = inhibition: at 76.4 µM (top of the series) unless noted.
How it was run: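 Recombinant human alpha-glucosidase (4 nM final) hydrolysed bovine liver glycogen (30 ug) for 40 min at 37 C in pH 5.0 citrate/phosphate with 0.01% Tween-20. Released glucose detected by glucose oxidase/Amplex Red, Ex 573/Em 610 nm. Compounds up to 77 uM; AC50 from Hill fits.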
For `CC(=O)Nc1nonc1-c1nnc(SCC(=O)Nc2cc(C)ccc2C)n1-c1ccccc1`, the “activity change, negative = inhibition” value was inactive: -7.07% [at 76.3 µM]. For `CCN(c1ccccc1)c1nnc(NC(=O)Nc2cccc(C(F)(F)F)c2)s1`, the Potency was inconclusive: 50.1 µM [inhibitor, single point]. With `Nc1ccccc1Nc1cc(-c2ccccc2)nn1-c1cccc(Cl)c1` the Potency was inconclusive: 7.94 µM [inhibitor, full curve]. `O=C(COc1ccccc1)Nc1ccc(OCc2cc(=O)n3ccsc3n2)cc1` was tested, and the “activity change, negative = inhibition” value was inactive: -10.1% [at 76.3 µM]. `C/C(CC(=O)Nc1ccc2ccccc2c1)=N\NC(=O)c1cnccn1` was tested, and the Potency was inconclusive: 11.2 µM [inhibitor, partial curve]. `COc1cccc(-n2c(N)c(-c3nc4ccccc4[nH]3)sc2=S)c1` was tested, and the Potency was inconclusive: 11.2 µM [inhibitor, partial curve]. For `COc1ccccc1CNC(=O)[C@H](C)NC(=O)C1CCN(C(=O)[C@@H](N)CC(C)C)CC1`, the Potency was inconclusive: 28.2 µM [inhibitor, single point]. For `CCc1ccccc1NC(=O)CSC1=C(C#N)C(c2ccc(O)c(OC)c2)C2=C(CCCC2=O)N1` (stereo not drawn), the Potency was inconclusive: 31.6 µM [inhibitor, partial curve, poor fit]. For `Cc1c2cnn(CC(=O)Nc3c(F)c(F)cc(F)c3F)c(=O)c2c(C)n1Cc1ccccc1F`, the “activity change, negative = inhibition” value was inactive: 11.7%. With `COc1ccc(OC)c(-c2nc(Nc3ccccc3C)sc2CC(=O)O)c1` the Potency was inconclusive: 22.4 µM [inhibitor, partial curve]. `CCOc1ccc(-c2cnc(NCc3cccc(Cl)c3)n2C)cc1` was tested, and the Potency was inconclusive: 35.5 µM [inhibitor, single point]. `Cc1ccc(NS(=O)(=O)c2ccc3c(c2)oc(=O)n3C)cc1C` was tested, and the “activity change, negative = inhibition” value was inactive: 1.15%. For `CC1(C)SC(=S)N(Cc2ccc3c(c2)OCO3)C1N(O)C(=O)NC1CCCCC1` (stereo not drawn), the Potency was inconclusive: 19.8 µM [inhibitor, partial curve]. In the case of `COc1ccc2c(c1)C(=O)N(c1ccc(C)cc1)C(=O)C2`, the Potency is reported as inconclusive: 31.4 µM [inhibitor, single point]. In the case of `C/C(=N\Nc1nc2ccccc2[nH]1)c1ccc([N+](=O)[O-])cc1`, the Potency is reported as inconclusive: 4.47 µM [inhibitor, full curve]. For `CN(C)c1c(N)[nH]c2c(c1=O)c(=O)n(C)c(=O)n2C`, the Potency was inconclusive: 7.08 µM [inhibitor, full curve]. `Cc1cc(C)cc(-n2nnc(C(=O)NCc3ccco3)c2N)c1` was tested, and the “activity change, negative = inhibition” value was inactive: 1.7%. With `O=C(N/N=C/c1c(O)n(-c2ccc(Cl)cn2)c(=O)c2ccccc12)C1CC1` the Potency was inconclusive: 25.1 µM [inhibitor, partial curve].
